According to PubChem BioAssay AID488969 (Vanderbilt High Throughput Screening Facility, 2010):
In all, about 110,000 compounds were measured (“z-score”: median about -0.1, highest 2% from about 2 on). This is one part of the list. The source made the active and inactive calls.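 The calls were made as follows: active = z-score in the third read window above 3 or below -3; inactive = the rest.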

biological target: Metabotropic glutamate receptor 8 (Rattus norvegicus) (UniProt P70579); test: mGluR8 Gi/Go-coupled signaling modulation – cell-based, rat, thallium flux, HTS, primary screen (AID 488969); settings: HEK293 rat mGluR8, GIRK (G protein-gated inwardly rectifying potassium channel) thallium flux, FluoZin2; at 10 µM; stronger effect = higher value; submaximal glutamate (EC20) added with thallium
Chain of UniProt P70579 (P70579 whole entry, looked up): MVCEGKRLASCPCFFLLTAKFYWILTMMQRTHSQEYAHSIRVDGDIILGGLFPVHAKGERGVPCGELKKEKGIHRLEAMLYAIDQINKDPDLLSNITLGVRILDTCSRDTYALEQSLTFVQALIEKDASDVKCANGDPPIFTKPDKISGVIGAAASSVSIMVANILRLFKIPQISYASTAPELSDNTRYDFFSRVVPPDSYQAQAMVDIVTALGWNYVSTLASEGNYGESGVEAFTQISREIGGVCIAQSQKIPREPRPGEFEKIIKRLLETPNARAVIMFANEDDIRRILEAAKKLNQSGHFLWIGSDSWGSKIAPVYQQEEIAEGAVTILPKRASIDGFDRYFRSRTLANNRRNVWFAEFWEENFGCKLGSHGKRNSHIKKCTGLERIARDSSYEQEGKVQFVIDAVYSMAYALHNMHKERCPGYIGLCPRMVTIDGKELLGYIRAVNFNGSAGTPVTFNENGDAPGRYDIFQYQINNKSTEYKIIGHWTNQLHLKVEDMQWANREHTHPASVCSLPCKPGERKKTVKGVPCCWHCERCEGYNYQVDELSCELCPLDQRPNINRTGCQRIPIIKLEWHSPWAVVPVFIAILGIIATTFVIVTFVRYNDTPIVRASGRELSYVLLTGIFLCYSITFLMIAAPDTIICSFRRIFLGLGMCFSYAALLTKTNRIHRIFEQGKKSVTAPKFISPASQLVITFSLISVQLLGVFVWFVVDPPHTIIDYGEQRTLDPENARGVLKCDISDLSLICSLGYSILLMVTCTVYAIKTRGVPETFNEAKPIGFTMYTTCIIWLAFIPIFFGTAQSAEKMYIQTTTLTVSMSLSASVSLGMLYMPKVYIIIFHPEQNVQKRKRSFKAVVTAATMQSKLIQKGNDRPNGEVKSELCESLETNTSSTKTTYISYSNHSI

| Compound | z-score |
| --- | --- |
| CCOC(=O)N1CCN(c2cc3nccnc3cc2F)CC1 | -0.142 |
| COC(=O)CN(C(=S)Nc1ccc(F)cc1)C1CC(=O)N(c2ccccc2)C1=O (stereo not given) | 0.011 |
| O=C1N=C(N2CCCC2)S/C1=C\c1cn[nH]c1-c1ccccc1 | -0.0679 |
| Cc1cc(N2CCOCC2)ccc1/C=C1\SC(=O)N(C(C)C)C1=O | -0.355 |
| C=CCn1c(N2CCCCCC2)nc2c1c(=O)[nH]c(=O)n2C | 0.514 |
| Cc1cc(C)cc(N=c2c([N+](=O)[O-])nn(-c3cccc(Cl)c3)n2O)c1 | 0.232 |
| O=C(Nc1ccc(Cl)cc1C(=O)NCC1CCCO1)c1ccco1 (stereo not given) | -0.386 |
| O=C1CSC(c2cn(-c3ccccc3)nc2-c2cc3ccccc3oc2=O)N1Cc1ccccc1 (stereo not given) | 0.611 |
| CCOC(=O)/C(=C\C=C1/Sc2ccccc2N1CC)C(C)=O | -0.944 |
| CCn1c(SCC(=O)Nc2cc(C(C)(C)C)nn2-c2ccccc2)nnc1-c1cccs1 | -0.473 |
| O=C(NCCc1ccc(Cl)cc1)c1ncn[nH]1 | -1.43 |
| CN1CCc2c(sc3c2C(=O)NC(c2ccco2)N3)C1 (stereo not given) | 0.267 |
| CCOc1ccc(N2C(=O)CC(N3CCN(c4ccc(C(=O)c5ccncc5)cc4)CC3)C2=O)cc1 (stereo not given) | 0.227 |
| CC1CCCC(C)N1C(=O)CSc1nc2ccccc2s1 (stereo not given) | -0.0391 |
| COc1ccc(C(=O)NCCSC2CCCCC2)cc1 | -0.16 |
| O=C(CSCc1c(Cl)cccc1Cl)Nc1nccs1 | 0.0355 |
| O=S1(=O)CCN2C=C(Br)C=C(Br)C2=N1 | -1.29 |
| CC(C)(C)C(=O)OCC1OC(n2cnc(C(N)=O)n2)C(O)C1O (stereo not given) | 0.2 |
| CCN(CC)c1ccc(/C=C(\C#N)c2nc(-c3cccs3)c(NC(C)=O)s2)cc1 | -0.109 |
| CCOc1ccc(C(C)=O)cc1CC(C(N)=O)C(N)=O | 0.287 |
| CCCCC(=O)Nc1ccc(C(=O)Nc2ccc(OC)cc2[N+](=O)[O-])cc1 | -0.267 |
| O=C(Nc1cccc(Cl)c1)c1ccc(-n2cncn2)c([N+](=O)[O-])c1 | -0.167 |

| Compound | z-score |
| --- | --- |
| Cn1c(=O)c2c(nc(SCC(=O)NCc3ccc4c(c3)OCO4)n2Cc2ccccc2)n(C)c1=O | -0.437 |
| CCOc1ccc(NC(=O)CCSc2ccc3ccccc3n2)cc1 | -0.248 |
| CCOc1ccc(NS(=O)(=O)c2ccc(OCC(=O)NCCCOC)cc2)cc1 | -0.369 |
| CCOC(=O)/C=c1\s/c(=C\c2ccc(C)cc2)c(=O)n1CC(=O)NCc1ccco1 | 0.0354 |
| Cc1ccc2nc(Nc3nc(-c4ccccc4)cc(=O)[nH]3)nc(C)c2c1 | -0.448 |
| Clc1ccccc1-c1nn2c(COc3ccccc3)nnc2s1 | active: -3.35 |
| COc1ccc(C2CC(c3ccccc3)Nc3nc(N)nn32)cc1 (stereo not given) | -0.316 |
| CC1CCCC(NC(=O)CN2CCN(Cc3ccc(Cl)cc3)C2=O)C1C (stereo not given) | 0.38 |
| COc1cccc(CNC(=O)C(c2ccc(Cl)cc2)C(C)C)c1 (stereo not given) | -0.36 |
| Nc1c(Cl)ncnc1N/N=C/c1ccccn1 | -0.00044 |
| CCCC(=O)NC(c1ccccc1Cl)c1c(O)ccc2ccccc12 (stereo not given) | 0.148 |
| COc1ccccc1NC(=O)/C=C/C(N)=O | 0.11 |
| CCCCNC(=O)C(CC)Sc1nc2sc(C(=O)OC)c(C)c2c(=O)n1N (stereo not given) | -0.308 |
| Cc1ccc(/S(C)=N/S(=O)(=O)c2ccc(C)cc2)cc1 (stereo not given) | 0.304 |
| Cc1cc(C(=O)O)c(CSc2ncn[nH]2)o1 | -0.141 |
| COCc1nnc(NC(=O)CCCOc2ccccc2OC)s1 | 0.141 |
| CCC1Oc2ccccc2N(CC(=O)NCCCN2CCOCC2)C1=O (stereo not given) | 0.42 |
| COc1ccc(NC(=O)C2CCCN2C(=O)NCc2ccccc2)c(OC)c1 (stereo not given) | 0.928 |
| CCOC(=O)C1C(=O)Nc2nc3ccccc3n2C1C(C)C (stereo not given) | -0.438 |
| COc1ccc(NC(=O)/C=C/c2cc(Br)ccc2OC)cc1 | -0.202 |
| O=C1N/C(=N/N=C/c2ccccc2)SC1(c1ccccc1)c1ccccc1 | -0.186 |
| COc1ccccc1NS(=O)(=O)N(C)C | -0.202 |

| Compound | z-score |
| --- | --- |
| O=[N+]([O-])c1cc(/C=N/Nc2nc3ccccc3[nH]2)c(O)cc1O | -0.273 |
| Cc1ccc(NC(NC(=O)c2cccs2)C(Cl)(Cl)Cl)cc1 (stereo not given) | -0.497 |
| CCCCC(CCC(=O)Nc1nccs1)C(=O)O (stereo not given) | -0.0988 |
| CN(CCCNC(=O)c1cccc(N2CCCC2=O)c1)c1ccccc1 | -0.176 |
| CCOC(=O)N1CCN(C(=O)CSCc2nc(-c3ccccc3F)oc2C)CC1 | -0.628 |
| Cc1cc(C(=O)N2CCC(Cc3ccccc3)CC2)ccc1[N+](=O)[O-] | -0.573 |
| Cc1ccc(OCCC(=O)NCCc2ccc(S(N)(=O)=O)cc2)cc1 | -0.083 |
| Nc1ncc(-c2ccc([N+](=O)[O-])cc2)cn1 | -0.418 |
| COc1cc(OC)c2c(c1)OC(c1ccc(OC)c(OC)c1)C(O)C2=O (stereo not given) | 0.0753 |
| Cc1ccc(C(=O)OCc2nc(N)nc(Nc3ccccc3C)n2)cc1 | -0.21 |
| NS(=O)(=O)c1ccc(CCNC(=O)C2CCCCN2S(=O)(=O)c2ccccc2)cc1 (stereo not given) | -0.178 |
| COc1ccc(-c2cc(C(F)(F)F)n3nc(C(=O)NCc4ccco4)cc3n2)cc1 | 1.09 |
| COCC(=O)Nc1ccc(N(C)C)cc1 | 0.287 |
| O=C(Nc1ccc(Cl)cc1)Nc1nnc(SCc2ccccc2)s1 | -0.368 |
| CCOC(=O)N1CCC(NCCNC(=O)c2ccccc2)CC1 | 0.292 |
| COCCn1nnnc1CN1CCC(Cc2ccccc2)CC1 | 0.866 |
| CCS(=O)(=O)N1CCN(c2c(Cl)cccc2[N+](=O)[O-])CC1 | -0.0555 |
| CCCCCCNC(=O)c1cc(-c2ccco2)nc2ccccc12 | -0.638 |
| COc1ccc(OC)c(/C=N/NC(=O)CCCC(=O)Nc2cccc(Br)c2)c1 | -0.48 |
| COc1ccc(C2C(C(=O)N3CCN(c4ccccc4)CC3)c3ccccc3C(=O)N2C)cc1OC (stereo not given) | 0.758 |
| COCCNC(=O)c1onc(CSc2cc(C)cc(C)c2)c1C(=O)O | -0.152 |
| COc1cccc(NC(=S)NCc2cccs2)c1 | -0.106 |

| Compound | z-score |
| --- | --- |
| Cc1c(-c2ccccc2)[n+](=O)c(-c2ccco2)c(C)n1[O-] | -0.246 |
| O=c1cc(CSc2nnnn2-c2ccccc2)nc(Nc2ccc(F)cc2)[nH]1 | 0.316 |
| CCCCCCNc1c([N+](=O)[O-])cc(C)cc1[N+](=O)[O-] | -0.2 |
| CC(=O)c1ccc(N2CCC(c3cc(-c4ccc(Cl)cc4Cl)n[nH]3)CC2)c([N+](=O)[O-])c1 | 0.00983 |
| CCn1c(SCC(=O)NCCc2ccccc2)nnc1-c1ccco1 | 0.117 |
| O=c1cc(/C=C/c2c(F)cccc2Cl)[nH]c2ccccc12 | 0.185 |
| Cc1c(/C=N/NC(=O)c2cccnc2)c2ccccn2c1C(=O)c1ccc(F)cc1 | -0.992 |
| CCC(=O)Nc1cc(-c2nn(CC(=O)N3CCCCC3)c(=O)c3ccccc23)ccc1N1CCOCC1 | 0.174 |
| COc1ccc(C(=O)N2CCN(c3ccc([N+](=O)[O-])c(NCCc4ccc(OC)c(OC)c4)c3)CC2)cc1 | 0.418 |
| Cc1ccc(NC(=O)CC2C(=O)NCCN2C(=S)Nc2ccccc2)c(C)c1 (stereo not given) | -0.193 |
| Brc1cccc(-c2nnc(SCc3ccon3)n2-c2ccccc2)c1 | -2.54 |
| Fc1ccccc1COc1ccc(/C=N/NC(=S)NCc2ccccc2)cc1 | 0.431 |
| O=C(NCc1cccnc1)/C(=N\O)c1ccccc1 | 2.02 |
| CCOC(=O)Cn1c(S(=O)(=O)Cc2cccc(F)c2)nc(-c2ccccc2)c1-c1ccccc1 | -0.568 |
| CC(=O)c1cccc(NC(=O)N2CCCC2C(=O)Nc2c(C)cccc2C)c1 (stereo not given) | 0.484 |
| Cc1nc([N+](=O)[O-])c(Br)n1CC(=O)c1ccccc1 | -0.0872 |
| O=C(Nc1cccc(F)c1)c1ccccc1 | 0.384 |
| O=c1cc(NCc2ccco2)[nH]c(=O)n1-c1ccc(Br)cc1 | -0.36 |
| Cn1cc(C(c2ccccn2)c2cn(C)c3ccccc23)c2ccccc21 | -0.248 |
| CC1CCc2nc3ccccc3c(C(=O)OCC(=O)N3CCc4ccccc43)c2C1 (stereo not given) | -0.34 |
| Cc1cc(C(F)F)n2ncc(C(=O)NC3CCCCCC3)c2n1 | -0.418 |
| Cc1c(/C(O)=C2\C(=O)C(=O)N(CCN(C)C)C2c2ccco2)cnn1-c1ccccc1 (stereo not given) | -0.0986 |

| Compound | z-score |
| --- | --- |
| CNc1nc(Nc2ccc(C)c(Cl)c2)nc(N)c1[N+](=O)[O-] | -2.03 |
| O=C(NNC(=O)C1CCCCC1)c1cnccn1 | -0.2 |
| CCOC(=O)Cn1c(S(=O)(=O)Cc2ccc(Cl)cc2)nc(-c2ccccc2)c1-c1ccccc1 | 0.0233 |
| CCCC(=O)Nc1ccc(Cl)c(NC(=O)c2ccc(Br)o2)c1 | -0.645 |
| c1ccc(C2Nc3ccccc3-c3nc4ccccc4n32)cc1 (stereo not given) | -0.556 |
| CN(C1CCCCC1)S(=O)(=O)c1ccc(S(=O)(=O)N2CCN(CCC#N)CC2)cc1 | 0.242 |
| Cn1c(C(=O)O)c(CC(=O)Nc2ccccc2F)c2ccccc21 | -0.861 |
| CN(C)c1cc[n+](CC(=O)Nc2ccc([N+](=O)[O-])cc2Cl)cc1 | -0.0606 |
| CC(Oc1ccc(-c2ccccc2)c(F)c1)c1ccn(S(=O)(=O)c2ccc(Cl)cc2)n1 (stereo not given) | -0.269 |
| CCOc1ccc(NC(=O)CSc2nnc(C(C)C)n2CC)cc1 | 0.698 |
| CCCCOC(=O)CSC1=C(C#N)C(c2ccccc2OCC)C(C#N)C(=O)N1 (stereo not given) | -1.97 |
| COc1cc(C(=O)OCC(=O)Nc2c(F)c(F)c(F)c(F)c2F)cc(OC)c1OC | 0.0147 |
| CCOC(=O)C(C)N1N=C(/C=C/c2ccc(OC)cc2)CCC1=O (stereo not given) | 0.00131 |
| Cc1ccc(-c2nnc(SCC(=O)Nc3nccs3)n2N)cc1 | -0.189 |
| O=C(c1ccccc1F)N1CCN(Cc2cccc(Cl)c2)CC1 | -0.421 |
| C/C(=N\NC(=S)NC1CCCCC1)c1cccc(Br)c1 | -0.438 |
| CCOc1ccc(-n2c(Cc3cc(=O)[nH]c(=O)[nH]3)nnc2SC(C)C(=O)OC)cc1 (stereo not given) | active: 12.7 |
| COC(=O)c1cc2c(ccn2-c2ccc(F)cc2)n1C(C)C | 0.713 |
| CC(=O)c1cccc(-n2nnnc2SCC(=O)N2CCCC2)c1 | -0.00861 |
| CCOc1ccc(OCC)c(NC(=O)CN(C)S(=O)(=O)c2cccc3nsnc23)c1 | -1.39 |
| COc1ccc2ccccc2c1/C=N/O | -0.86 |
| COc1cc(NC(=O)CC2NCCNC2=O)cc(OC)c1 (stereo not given) | 0.425 |
